# Some of the results follow.
# Molecular target: T1, OsWOX13 (Oryza sativa, UniProt Q5QMM3 1-267)
# T1 sequence: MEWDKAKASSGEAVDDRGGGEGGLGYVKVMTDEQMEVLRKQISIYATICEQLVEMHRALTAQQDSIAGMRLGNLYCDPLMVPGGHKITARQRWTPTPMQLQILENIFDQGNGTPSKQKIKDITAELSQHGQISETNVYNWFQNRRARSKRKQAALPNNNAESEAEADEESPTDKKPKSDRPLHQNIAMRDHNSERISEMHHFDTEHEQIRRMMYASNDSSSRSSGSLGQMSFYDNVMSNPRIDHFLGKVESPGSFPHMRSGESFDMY
# Test: protein-binding microarray (RPBM); PBS, 2% BSA, 51.3 ng/ul salmon testes DNA, 50 uM zinc acetate, 200 nM TF, 25 C, 1 h; high values mean tight binding
# Conditions: protein: recombinant; tags: N-terminal polyhistidine and DsRed monomer fusion (pET32a); label: CyDye5-dUTP incorporated in the synthesized complementary strand; 3' TTTTT single-stranded linker to array surface; dsDNA, one strand shown
# Summary of the method: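 An Axon 4000B scanner gave the binding signal as per-feature fluorescence intensity in arbitrary units. This followed washing of a custom Agilent array that had been incubated for 1 h at 25 °C with 200 nM protein in PBS, 2% BSA, salmon testes DNA and 50 µM zinc acetate. The proteins were transcription factors fused at the N-terminus to polyhistidine and DsRed, expressed in E. coli BL21-CodonPlus and purified on Ni–NTA.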
row,Sequence,binding signal
1,CATTTACTAATTTGTTTGCTTGATTGTCCTGGCGAAATTGCGGAGTCACCTAGTGCAG,40000 fluorescence intensity (a.u.)
2,TAATTAAATTGTCATATCACTTCTTAACTTATTGGACTAACGGAGTCACCTAGTGCAG,5280 fluorescence intensity (a.u.)
3,CATGAAGCTGATTTGTTCCGTGAAGCAATTAGGATGGTGTCGGAGTCACCTAGTGCAG,6470 fluorescence intensity (a.u.)
4,ATAATTGAGATGGAAAGTGTAATAACGAGTGATGCATAAGCGGAGTCACCTAGTGCAG,19700 fluorescence intensity (a.u.)
5,CCAAATTTGTGAATAAGTATAAACTACAGATACTGCTCGCCGGAGTCACCTAGTGCAG,6180 fluorescence intensity (a.u.)
6,AATTAACAATTTACCAAATTATTAGTTATCAACACTAATTCGGAGTCACCTAGTGCAG,11300 fluorescence intensity (a.u.)
7,AATTAATTATTCGAGCAGTTCAAATGGATCAGAGAATAATCGGAGTCACCTAGTGCAG,7360 fluorescence intensity (a.u.)
8,TATGAAATTTAGAGACTTAAATTGAACTTCACAGACATTGCGGAGTCACCTAGTGCAG,13700 fluorescence intensity (a.u.)
9,CCTAATTTAGGCCCCAAACTAAACCTGCCCCAAATCAAAGCGGAGTCACCTAGTGCAG,7500 fluorescence intensity (a.u.)
10,CTAGTAGTACTAATTGTGATTATATATGGAGTATTTAATTCGGAGTCACCTAGTGCAG,5470 fluorescence intensity (a.u.)
11,TTCAGTTCATGTCAGATTAACAAATTAACACCTCAAGCCCCGGAGTCACCTAGTGCAG,4280 fluorescence intensity (a.u.)
12,ACTGTCACTAATAAATCATTGTTTATTACTTAATCACACGCGGAGTCACCTAGTGCAG,5430 fluorescence intensity (a.u.)
13,TGCAGGTTGATTATGTGTCAACCAATGATCAAGTAGCTGACGGAGTCACCTAGTGCAG,9240 fluorescence intensity (a.u.)
14,CAAGTCAATCTATAAGTTATTAGTAGTTGCCAGTTTGCCACGGAGTCACCTAGTGCAG,7250 fluorescence intensity (a.u.)
15,CAAAATTGACAACAAGCAAACATCTCATCATCACCAGTACCGGAGTCACCTAGTGCAG,30600 fluorescence intensity (a.u.)
16,CATGATTGAAGATTTGAAGAGCACATGAGAATTATACTTCCGGAGTCACCTAGTGCAG,41700 fluorescence intensity (a.u.)
17,TCTAAATTTTAATATGTAATCATACCACGGAGGCAAAGCTCGGAGTCACCTAGTGCAG,21900 fluorescence intensity (a.u.)
18,AGGTTGACATGAAGATGAAATAAACAAATAGCATGTTGATCGGAGTCACCTAGTGCAG,4210 fluorescence intensity (a.u.)
19,TTATCCAATTATATCTTTTAGTGTGTGTGTGTGTATATATCGGAGTCACCTAGTGCAG,5750 fluorescence intensity (a.u.)
20,ATAGTATATGGTTGGGCAATTGATTGACCAACTAACAGTTCGGAGTCACCTAGTGCAG,10900 fluorescence intensity (a.u.)
21,ATTAAAGCAGGAAATTTTGATTGAAACACTATGCTAGTTCCGGAGTCACCTAGTGCAG,25000 fluorescence intensity (a.u.)

row,Sequence,binding signal
1,GGTGTAATTAGTATGGTGTTTTAATCGATACATGTATTGCCGGAGTCACCTAGTGCAG,17200 fluorescence intensity (a.u.)
2,TTACCTAATTAGTGTGTAATTTACACCCGTCTATTATTATCGGAGTCACCTAGTGCAG,36200 fluorescence intensity (a.u.)
3,CTTAATAGAAGTGGTGAGTAGGAGTAATAAACAATGGAGTCGGAGTCACCTAGTGCAG,5750 fluorescence intensity (a.u.)
4,GATCTCAACTAGAACATGATTAGGAACCCAAGCAGCAAGCCGGAGTCACCTAGTGCAG,4480 fluorescence intensity (a.u.)
5,AATAATTGAATATATTTTCATAATAAATGTGTGTTGAGTTCGGAGTCACCTAGTGCAG,38400 fluorescence intensity (a.u.)
6,CTGCAATTGACATCTTGATCGGTTGTCCCTCGAATGGGGACGGAGTCACCTAGTGCAG,25200 fluorescence intensity (a.u.)
7,CCGTCAAATAGTTATTTAATTTATGGCTACTAATTACTATCGGAGTCACCTAGTGCAG,11600 fluorescence intensity (a.u.)
8,CATGCTTGATGTGTATTATCAATTTCAGGTCTTACAGGAACGGAGTCACCTAGTGCAG,3840 fluorescence intensity (a.u.)
9,ATTCTAATCCAAATTATCAAGATAATAATCATAACTTTAGCGGAGTCACCTAGTGCAG,10700 fluorescence intensity (a.u.)
10,AAACTAATTTTCTGTGACACTTCCAAGTGCATACCGGAGTCGGAGTCACCTAGTGCAG,10300 fluorescence intensity (a.u.)
11,TGTAACTATAATGTAACTAGGGTGTAACTGGAGTATAACTCGGAGTCACCTAGTGCAG,6300 fluorescence intensity (a.u.)
12,ATTAAATTAAGAAGATGTATTAACATATGATATATCGCTTCGGAGTCACCTAGTGCAG,23500 fluorescence intensity (a.u.)
13,TCTAAATTCATAGAATTATGACGTGTCACATCTACGTACGCGGAGTCACCTAGTGCAG,3610 fluorescence intensity (a.u.)
14,CGGGGATTGGCCCGGCGAGGCTTTCACGGTGGGGACTGGGCGGAGTCACCTAGTGCAG,6760 fluorescence intensity (a.u.)
15,ATTTAGATAGATGTATATCCAAATTTATAATAGAAGAATGCGGAGTCACCTAGTGCAG,7740 fluorescence intensity (a.u.)
16,TTGTGAAGCTTAATTAGGTTGATCGATTGGTCAGAACTCGCGGAGTCACCTAGTGCAG,7940 fluorescence intensity (a.u.)
17,ATAAAACAGACGATCAAAATTGAAGAAAGAAACTCATGGCCGGAGTCACCTAGTGCAG,6440 fluorescence intensity (a.u.)
18,TGTAATTTTAGACTTAACAATGTGCACTTTTAGTTTTAGACGGAGTCACCTAGTGCAG,8310 fluorescence intensity (a.u.)
19,CTCAATTAATCATGCGCTAATAGCTCACATCGTTTTACGTCGGAGTCACCTAGTGCAG,11100 fluorescence intensity (a.u.)
20,TGTGCCTTAATTGACAAACCAGGCAAGCAGGCTTTATCTACGGAGTCACCTAGTGCAG,30500 fluorescence intensity (a.u.)
21,TTTGTTGTGATTTATTTTGTCATCAAAGAGACCCTAACCTCGGAGTCACCTAGTGCAG,9740 fluorescence intensity (a.u.)

# — PMC7819943, “Rice protein-binding microarrays: a tool to detect cis-acting elements near promoter regions in rice”
